Target: T1, Insulin-like Growth Factor I Receptor (IGF-1R)
T1 construct: also called IGFR; IGF receptor
Assay: competitive displacement, microtiter plate antibody capture assay with the IGF Type I receptor

B1: Arg^B31, Arg^B32, Gly^A21-insulin (ligand)
chain 1: not shown
chain 2: not shown
notes: also called insulin Glargine; Lantus
Kd: 3.1 nM | relative to insulin: 3 fold, relative to insulin

From patent US20110166064A1 (published 2011)
